Data on 53 sequences can be found in paper PMC6602471.

This is one part of the list. At the low end of the ranking the order means little.

The target in the assay is T1, ETS1 (UniProt P14921).
T1 sequence: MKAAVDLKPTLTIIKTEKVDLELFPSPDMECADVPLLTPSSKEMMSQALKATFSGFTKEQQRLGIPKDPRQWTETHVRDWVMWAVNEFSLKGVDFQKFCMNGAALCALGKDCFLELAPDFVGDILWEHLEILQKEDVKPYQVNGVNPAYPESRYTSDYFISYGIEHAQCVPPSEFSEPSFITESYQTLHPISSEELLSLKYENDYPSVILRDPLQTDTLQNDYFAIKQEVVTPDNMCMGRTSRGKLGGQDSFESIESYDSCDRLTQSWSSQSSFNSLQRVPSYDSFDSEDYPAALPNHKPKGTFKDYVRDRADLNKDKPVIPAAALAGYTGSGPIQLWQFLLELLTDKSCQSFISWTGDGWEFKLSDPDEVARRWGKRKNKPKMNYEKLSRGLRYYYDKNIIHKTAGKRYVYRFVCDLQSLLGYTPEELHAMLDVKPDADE
Kind of assay: custom PBM. As to conditions: custom protein-binding microarray; buffer, salt, pH and temperature not stated; high values mean tight binding; double strand, one strand shown.
As to “GGATAAAGGCCCAGGGTAACACCGGAAGTGGGCTTAGTCTTGATTCGCTTGACGCTGCTG”, the binding signal (log fluorescence intensity) was determined as 11.9.

“TGTCCGGTAAGGGAATGTAGATCACGTGAATGAAAAGTCTTGATTCGCTTGACGCTGCTG”: the binding signal (log fluorescence intensity) came out at 8.18.

For “GCTGCTGCGGTGCATACCCCACCGGGTGTGACCCCGGTCTTGATTCGCTTGACGCTGCTG”, the binding signal (log fluorescence intensity) stood at 8.21.

“CGGAAGTGTCGTAAACGTCGGATATCCGATTCTTCTGTCTTGATTCGCTTGACGCTGCTG”: the binding signal (log fluorescence intensity) was 8.64.

As to “GATTAATTTATGCCCTTATTCGCACGTGCCATAACAGTCTTGATTCGCTTGACGCTGCTG”, the binding signal (log fluorescence intensity) came to 8.31.

Consider “TCCGGCTACCAACTCCACCCACTTCAGGCCTTGTAGGTCTTGATTCGCTTGACGCTGCTG”, for which the binding signal (log fluorescence intensity) stood at 8.36.

In the case of “GGAAAAAGGCCCAGGGTAACACCGGAAGTGGGATTAGTCTTGATTCGCTTGACGCTGCTG”, the binding signal (log fluorescence intensity) stood at 12.1.

For “GTGTATAGGATCCCATCCAACACACGTGTTAATATGGTCTTGATTCGCTTGACGCTGCTG”, the binding signal (log fluorescence intensity) amounted to 8.34.

For “CACAATTTTTACAGTAATATAGCACGCGTAACTCCTGTCTTGATTCGCTTGACGCTGCTG”, the binding signal (log fluorescence intensity) was determined as 8.37.

On to “TCCGGCTACCAGATCCACCCACTTCAGGCCTTGTAGGTCTTGATTCGCTTGACGCTGCTG”, for which the binding signal (log fluorescence intensity) turned out to be 8.27.

As for “TCCGGCTACCAGCTCCACCCACTTCAGGCCTTGCAGGTCTTGATTCGCTTGACGCTGCTG”, the binding signal (log fluorescence intensity) amounted to 8.11.

For the sequence “TAAAGGGAAGACGCTTGTGGTAGTTCCGGGTATTAAGTCTTGATTCGCTTGACGCTGCTG”, the binding signal (log fluorescence intensity) was 8.41.

For “CACAATTTTTACAGTAATGTAGCACGCGTAACTCCAGTCTTGATTCGCTTGACGCTGCTG”, the binding signal (log fluorescence intensity) was 8.12.

Take “CTGGGACTTGACCCAACTCTGCCACGTTGGTCGTTTGTCTTGATTCGCTTGACGCTGCTG”: the binding signal (log fluorescence intensity) stood at 8.34.

Consider “CAGCATAGGAGTTCTTCCCTGAAGCAATTGATAACCGTCTTGATTCGCTTGACGCTGCTG”, for which the binding signal (log fluorescence intensity) was determined as 8.17.

In the case of “TCCGCCTACCAGCTCCACCCACTTCAGGCCTTGTAGGTCTTGATTCGCTTGACGCTGCTG”, the binding signal (log fluorescence intensity) was determined as 8.47.

For “GATTAATTACTGCCCTTATTCGCACGTGCCATAACAGTCTTGATTCGCTTGACGCTGCTG”, the binding signal (log fluorescence intensity) was 8.17.

Turning to “CTGGGACTTGGCCCAACTCTGCCACGTGGGTCGTTTGTCTTGATTCGCTTGACGCTGCTG”, the binding signal (log fluorescence intensity) was 8.06.

Consider “GTGTATAGGATCCCATCCAACTCACGTGTTAAAATGGTCTTGATTCGCTTGACGCTGCTG”, for which the binding signal (log fluorescence intensity) was found to be 8.27.

For “TGTCGGGTAAGGGCATGTAGATCACGTGAATGAAAAGTCTTGATTCGCTTGACGCTGCTG”, the binding signal (log fluorescence intensity) was 8.41.

Take “CGGAAGTGTCGTAAACGTCGGATATCCGGATCTTCTGTCTTGATTCGCTTGACGCTGCTG”: the binding signal (log fluorescence intensity) came out at 9.94.

Regarding “GATTAATTTCTGCCCTTATTCGCGCGTGCCATAACAGTCTTGATTCGCTTGACGCTGCTG”, the binding signal (log fluorescence intensity) was found to be 8.25.

On to “TCCGGCTAACAGCTCCACCCACTTCAGGCCTTGTAGGTCTTGATTCGCTTGACGCTGCTG”, for which the binding signal (log fluorescence intensity) stood at 8.32.

Consider “TACTGACTTATATATGGGAATGCACATGAATAGACCGTCTTGATTCGCTTGACGCTGCTG”, for which the binding signal (log fluorescence intensity) amounted to 8.32.

As for “CGGAAGTGTCGTAAACCTCGGATATCCGGTTCTTCTGTCTTGATTCGCTTGACGCTGCTG”, the binding signal (log fluorescence intensity) came out at 11.7.

As for “TAAAGGGAAGGCGGTTGTGGTAGTTCCGGGTATTAAGTCTTGATTCGCTTGACGCTGCTG”, the binding signal (log fluorescence intensity) is 8.4.

For the sequence “GCTGCTGCGGTGCATACCCCACCGGATGGGACCCCGGTCTTGATTCGCTTGACGCTGCTG”, the binding signal (log fluorescence intensity) came to 8.45.

Regarding “GTGTATAGGAACCCATCCAACACACGTGTTAAAATGGTCTTGATTCGCTTGACGCTGCTG”, the binding signal (log fluorescence intensity) was found to be 8.33.

For the sequence “CACAATTTTTACAGTATTGTAGCACGCGTAACTCCTGTCTTGATTCGCTTGACGCTGCTG”, the binding signal (log fluorescence intensity) was determined as 8.04.

“GCTGCTGCGGTGCATACCACACCGGATGTGACCCCGGTCTTGATTCGCTTGACGCTGCTG”: the binding signal (log fluorescence intensity) was found to be 10.7.

Turning to “GATTAATTTCTGCCCTTATTCGCTCGTGCCATAACAGTCTTGATTCGCTTGACGCTGCTG”, the binding signal (log fluorescence intensity) was found to be 8.23.

As to “CTGGGACTTGACCCAACTCTGCCACGTGTGTCGTTTGTCTTGATTCGCTTGACGCTGCTG”, the binding signal (log fluorescence intensity) was determined as 8.32.

As for “GTGTATAGGATCCCATCAAACACACGTGTTAAAATGGTCTTGATTCGCTTGACGCTGCTG”, the binding signal (log fluorescence intensity) turned out to be 8.21.

For “CGGAAGTGTCGTAAACGTCGGATCTCCGGTTCTTCTGTCTTGATTCGCTTGACGCTGCTG”, the binding signal (log fluorescence intensity) came out at 8.47.

Consider “CACAATTTTTAGAGTAATGTAGCACGCGTAACTCCTGTCTTGATTCGCTTGACGCTGCTG”, for which the binding signal (log fluorescence intensity) stood at 8.15.

For “CAGCATAGGACTTCTTCCCTGAAGCAATTGATAACCGTCTTGATTCGCTTGACGCTGCTG”, the binding signal (log fluorescence intensity) turned out to be 8.39.

With “GGAAAAAGGCCAAGGGTAACACCGGAAGTGGGCTTAGTCTTGATTCGCTTGACGCTGCTG”, the binding signal (log fluorescence intensity) came to 12.

With “CAGCATAGGACTTCTTCCCTGAAGCTATTGATAACCGTCTTGATTCGCTTGACGCTGCTG”, the binding signal (log fluorescence intensity) was found to be 8.13.

On to “GCTGCTGCGGTGTATACCCCACCGGATGTGACCCCGGTCTTGATTCGCTTGACGCTGCTG”, for which the binding signal (log fluorescence intensity) was 10.1.

In the case of “GTGTATAGGATCCCATCCAACCCACGTGTTAAAATGGTCTTGATTCGCTTGACGCTGCTG”, the binding signal (log fluorescence intensity) amounted to 8.36.

Consider “GTGTATAGGATCCCATCCATCACACGTGTTAAAATGGTCTTGATTCGCTTGACGCTGCTG”, for which the binding signal (log fluorescence intensity) turned out to be 8.

Turning to “CAGCATAGGACTTCTTCCCTGAAGCACTTGATAACCGTCTTGATTCGCTTGACGCTGCTG”, the binding signal (log fluorescence intensity) amounted to 8.31.

On to “GGAAAAAGGCCCAGGGTATCACCGGAAGTGGGCTTAGTCTTGATTCGCTTGACGCTGCTG”, for which the binding signal (log fluorescence intensity) came to 11.4.

For “TGTTGGGTAAGGGAATGTAGATCACGTGAATGAAAAGTCTTGATTCGCTTGACGCTGCTG”, the binding signal (log fluorescence intensity) was 8.34.

Regarding “TCCGGCTAGCAGCTCCACCCACTTCAGGCCTTGTAGGTCTTGATTCGCTTGACGCTGCTG”, the binding signal (log fluorescence intensity) came to 8.23.

In the case of “TCCGGCTACCAGCTCCACCCACTTCAGGCCGTGTAGGTCTTGATTCGCTTGACGCTGCTG”, the binding signal (log fluorescence intensity) turned out to be 8.27.

Regarding “GCTGCTGCCGTGCATACCCCACCGGATGTGACCCCGGTCTTGATTCGCTTGACGCTGCTG”, the binding signal (log fluorescence intensity) was 10.4.

With “CGGAAGTGTAGTAAACGTCGGATATCCGGTTCTTCTGTCTTGATTCGCTTGACGCTGCTG”, the binding signal (log fluorescence intensity) came out at 11.6.

“CTGGGACTTGACCAAACTCTGCCACGTGGGTCGTTTGTCTTGATTCGCTTGACGCTGCTG”: the binding signal (log fluorescence intensity) was determined as 8.3.

As to “GGAAAAAGGCCCAGGGTAACACCGTAAGTGGGCTTAGTCTTGATTCGCTTGACGCTGCTG”, the binding signal (log fluorescence intensity) was 8.34.

With “GTGTATAGGATCCCATCCAACACACGTGTTTAAATGGTCTTGATTCGCTTGACGCTGCTG”, the binding signal (log fluorescence intensity) was 8.26.

With “TACTGACTTATATATGCGAATGCACCTGAATAGACCGTCTTGATTCGCTTGACGCTGCTG”, the binding signal (log fluorescence intensity) is 8.24.

For “TCCGGCTACCAGCTCCACCCACTTCATGCCTTGTAGGTCTTGATTCGCTTGACGCTGCTG”, the binding signal (log fluorescence intensity) came out at 8.18.
